Assay results taken from PubChem BioAssay (Tox21).
Results filed as inconclusive are left out. Unless noted, the call rests on the fitted dose curve. Where a structure was tested more than once in an assay, its records may differ in their call. Certain results were filed several times, with different values. This is not the full list of results. There may be further records. The values listed for one entry are repeats (runs, samples, wells, individuals or studies). Brackets tell where a record comes from. The letters are not those of the source and start again with each entry.

How the values were obtained:
[1] = qHTS assay for small molecules that induce genotoxicity in human embryonic kidney cells expressing luciferase-tagged ATAD5 - cell viability (AID 651634); further: nearly all actives have a fitted effect of over 25% in size
Summary of the method: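 Cytotoxicity counter-readout: after 15.5 hr compound treatment at 37C, live-cell protease activity in ATAD5-luciferase HEK293T cells measured by CellTiter-Fluor fluorescence, 30 min development at 37C.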

[2] = qHTS assay to identify small molecule antagonists of the peroxisome proliferator-activated receptor gamma (PPARg) signaling pathway - cell viability counter screen (AID 743194; active means well fitted curve in the direction sought with a large enough effect in the repeat runs; an effect the other way counts as inactive or inconclusive; further: nearly all actives have a fitted effect of over 55% in size)
Summary of the method: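 Viability was measured as CellTiter-Glo luminescence in GeneBLAzer PPARg UAS-bla HEK293H cells. These cells had been exposed 17 h at 37 C to compounds together with rosiglitazone at 50 nM final, with the beta-lactamase readout taken in the same wells.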

[3] = A CellTox Green Cytotoxicity Assay to monitor cytotoxicity in HEK293 cells - 24 hour (AID 1224875; active means well fitted curve in the direction sought with a large enough effect in the repeat runs; an effect the other way counts as inactive or inconclusive; further: nearly all actives have a fitted effect of over 45% in size)
Text: National Center for Advancing Translational Sciences [NCATS]
NIH Chemical Genomics Center [NCGC]
U.S. Environmental Protection Agency [EPA]
National Institutes of Environmental Health Sciences [NIEHS]
National Toxicology Program [NTP]
Cell-based models are critical for drug discovery. Determining the natural cytotoxic effects resulting from test compounds is an essential research activity. A CellTox Green Cytotoxicity Assay to monitor cytotoxicity in real time of continues cell culture during 40 hours of the compound treatment was used to screen Tox21 10K library compounds in Hek293 cells. CellTox Green Cytotoxicity Assay is a nonlytic, homogeneous, biofluorescent method to measure cytotoxicity in cell culture after experimental manipulation. The assay system uses a proprietary asymmetric cyanine dye that is excluded from viable cells but preferentially stains the dead cell's DNA. […] Viable cells produce no appreciable increases in fluorescence. Therefore, the fluorescence signal produced by the binding interaction with dead cell DNA is proportional to cytotoxicity.
The mixture of Hek293 cell suspension and reagents were dispensed at 600cells/6 ul/well in 1536-well tissue culture treated black solid bottom plates using a Multidrop dispenser. […] The fluorescence intensity were measured at 0h, 8h, 16h, 24h, 32h and 40h time points using ViewLux plate reader during compound treatment.
Potency means the concentration at half of the fitted maximal effect.

Row | SMILES | Potency [1] | Potency [2] | Potency [3]
1 | CC(C)[C@@]1(NC(=O)[C@@H]2C[C@@H]3c4cccc5[nH]cc(c45)C[C@H]3N(C)C2)O[C@@]2(O)[C@@H]3CCCN3C(=O)[C@H](Cc3ccccc3)N2C1=O | active: 29.8 µM [sample A] and inactive [sample B] | – | –
2 | CCOC(=O)C(O)(c1ccc(Cl)cc1)c1ccc(Cl)cc1 | active: 24.6 µM [sample A] and inactive [sample B] | active: 11.1 µM [sample A] and inactive [sample B] | active: 44.1 µM [sample A] and inactive [sample B]
